In paper PMC11850129:
These are yes or no findings as the source states them, for the method shown. In cells and extracts the contact can be indirect. Some entries that bind do so weakly or less than the wild type. For some assays here: Sequences can lack the tags named with a protein.

Sequences of proteins named here, by UniProt entry; tags and fusion partners are left off.
UniProt A2BH40: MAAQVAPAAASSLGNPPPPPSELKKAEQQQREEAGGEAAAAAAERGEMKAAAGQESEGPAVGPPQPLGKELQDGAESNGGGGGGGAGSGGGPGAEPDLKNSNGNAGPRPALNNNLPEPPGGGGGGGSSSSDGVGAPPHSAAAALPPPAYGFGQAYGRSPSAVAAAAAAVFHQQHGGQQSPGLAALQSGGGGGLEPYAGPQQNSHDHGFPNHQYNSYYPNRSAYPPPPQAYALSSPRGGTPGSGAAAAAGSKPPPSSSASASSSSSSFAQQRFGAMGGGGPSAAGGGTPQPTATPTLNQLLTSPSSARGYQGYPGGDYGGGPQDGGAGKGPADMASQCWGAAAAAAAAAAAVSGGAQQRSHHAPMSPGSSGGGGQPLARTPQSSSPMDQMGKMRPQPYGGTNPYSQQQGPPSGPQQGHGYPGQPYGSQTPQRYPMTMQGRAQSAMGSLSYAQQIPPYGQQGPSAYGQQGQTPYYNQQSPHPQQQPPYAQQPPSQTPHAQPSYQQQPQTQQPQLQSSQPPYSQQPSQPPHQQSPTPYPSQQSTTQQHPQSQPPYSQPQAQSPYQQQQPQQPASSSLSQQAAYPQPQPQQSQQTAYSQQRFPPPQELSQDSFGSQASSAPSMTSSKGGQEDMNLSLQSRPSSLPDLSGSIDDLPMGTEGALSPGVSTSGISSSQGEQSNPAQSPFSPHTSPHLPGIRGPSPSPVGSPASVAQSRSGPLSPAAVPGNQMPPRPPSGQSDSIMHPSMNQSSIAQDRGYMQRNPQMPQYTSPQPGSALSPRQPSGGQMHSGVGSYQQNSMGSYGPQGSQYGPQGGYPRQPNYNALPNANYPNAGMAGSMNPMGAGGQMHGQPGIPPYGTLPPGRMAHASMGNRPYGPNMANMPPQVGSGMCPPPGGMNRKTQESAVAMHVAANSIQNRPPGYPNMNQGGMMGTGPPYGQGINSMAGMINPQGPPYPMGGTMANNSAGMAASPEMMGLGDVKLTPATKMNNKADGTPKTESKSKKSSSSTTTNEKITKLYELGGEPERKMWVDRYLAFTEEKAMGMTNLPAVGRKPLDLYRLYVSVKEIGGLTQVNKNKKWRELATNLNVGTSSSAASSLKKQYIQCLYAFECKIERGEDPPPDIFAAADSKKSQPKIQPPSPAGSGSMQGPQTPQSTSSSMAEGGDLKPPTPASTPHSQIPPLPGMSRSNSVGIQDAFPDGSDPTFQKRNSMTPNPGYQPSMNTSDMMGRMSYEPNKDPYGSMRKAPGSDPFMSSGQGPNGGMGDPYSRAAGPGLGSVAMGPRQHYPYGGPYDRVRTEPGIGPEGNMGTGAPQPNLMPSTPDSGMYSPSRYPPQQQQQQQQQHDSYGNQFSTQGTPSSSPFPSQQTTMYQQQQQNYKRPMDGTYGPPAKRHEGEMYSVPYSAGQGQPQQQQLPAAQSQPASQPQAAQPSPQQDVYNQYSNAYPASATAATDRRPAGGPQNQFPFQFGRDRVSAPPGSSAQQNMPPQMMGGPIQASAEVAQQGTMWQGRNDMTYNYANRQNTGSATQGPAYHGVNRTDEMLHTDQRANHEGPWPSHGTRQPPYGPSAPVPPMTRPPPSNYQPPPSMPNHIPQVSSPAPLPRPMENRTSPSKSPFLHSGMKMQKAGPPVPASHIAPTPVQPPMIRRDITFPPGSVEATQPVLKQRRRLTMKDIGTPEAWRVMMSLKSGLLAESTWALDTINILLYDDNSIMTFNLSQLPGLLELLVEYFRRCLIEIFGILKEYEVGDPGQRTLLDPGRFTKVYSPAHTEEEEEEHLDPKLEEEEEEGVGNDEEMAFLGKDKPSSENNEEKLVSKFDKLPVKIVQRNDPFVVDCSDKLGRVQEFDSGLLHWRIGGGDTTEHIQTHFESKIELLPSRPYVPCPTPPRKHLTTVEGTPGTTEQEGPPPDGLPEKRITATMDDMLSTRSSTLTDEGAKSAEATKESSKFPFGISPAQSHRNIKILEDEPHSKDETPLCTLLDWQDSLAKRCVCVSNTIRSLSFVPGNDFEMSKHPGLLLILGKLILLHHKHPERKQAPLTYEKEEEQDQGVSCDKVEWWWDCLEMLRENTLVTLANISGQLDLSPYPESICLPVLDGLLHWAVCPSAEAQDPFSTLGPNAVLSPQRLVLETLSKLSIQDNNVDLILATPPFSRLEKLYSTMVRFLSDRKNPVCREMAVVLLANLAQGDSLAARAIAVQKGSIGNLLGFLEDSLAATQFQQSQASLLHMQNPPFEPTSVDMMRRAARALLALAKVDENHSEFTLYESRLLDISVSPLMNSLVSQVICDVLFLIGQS
UniProt Q3TKT4: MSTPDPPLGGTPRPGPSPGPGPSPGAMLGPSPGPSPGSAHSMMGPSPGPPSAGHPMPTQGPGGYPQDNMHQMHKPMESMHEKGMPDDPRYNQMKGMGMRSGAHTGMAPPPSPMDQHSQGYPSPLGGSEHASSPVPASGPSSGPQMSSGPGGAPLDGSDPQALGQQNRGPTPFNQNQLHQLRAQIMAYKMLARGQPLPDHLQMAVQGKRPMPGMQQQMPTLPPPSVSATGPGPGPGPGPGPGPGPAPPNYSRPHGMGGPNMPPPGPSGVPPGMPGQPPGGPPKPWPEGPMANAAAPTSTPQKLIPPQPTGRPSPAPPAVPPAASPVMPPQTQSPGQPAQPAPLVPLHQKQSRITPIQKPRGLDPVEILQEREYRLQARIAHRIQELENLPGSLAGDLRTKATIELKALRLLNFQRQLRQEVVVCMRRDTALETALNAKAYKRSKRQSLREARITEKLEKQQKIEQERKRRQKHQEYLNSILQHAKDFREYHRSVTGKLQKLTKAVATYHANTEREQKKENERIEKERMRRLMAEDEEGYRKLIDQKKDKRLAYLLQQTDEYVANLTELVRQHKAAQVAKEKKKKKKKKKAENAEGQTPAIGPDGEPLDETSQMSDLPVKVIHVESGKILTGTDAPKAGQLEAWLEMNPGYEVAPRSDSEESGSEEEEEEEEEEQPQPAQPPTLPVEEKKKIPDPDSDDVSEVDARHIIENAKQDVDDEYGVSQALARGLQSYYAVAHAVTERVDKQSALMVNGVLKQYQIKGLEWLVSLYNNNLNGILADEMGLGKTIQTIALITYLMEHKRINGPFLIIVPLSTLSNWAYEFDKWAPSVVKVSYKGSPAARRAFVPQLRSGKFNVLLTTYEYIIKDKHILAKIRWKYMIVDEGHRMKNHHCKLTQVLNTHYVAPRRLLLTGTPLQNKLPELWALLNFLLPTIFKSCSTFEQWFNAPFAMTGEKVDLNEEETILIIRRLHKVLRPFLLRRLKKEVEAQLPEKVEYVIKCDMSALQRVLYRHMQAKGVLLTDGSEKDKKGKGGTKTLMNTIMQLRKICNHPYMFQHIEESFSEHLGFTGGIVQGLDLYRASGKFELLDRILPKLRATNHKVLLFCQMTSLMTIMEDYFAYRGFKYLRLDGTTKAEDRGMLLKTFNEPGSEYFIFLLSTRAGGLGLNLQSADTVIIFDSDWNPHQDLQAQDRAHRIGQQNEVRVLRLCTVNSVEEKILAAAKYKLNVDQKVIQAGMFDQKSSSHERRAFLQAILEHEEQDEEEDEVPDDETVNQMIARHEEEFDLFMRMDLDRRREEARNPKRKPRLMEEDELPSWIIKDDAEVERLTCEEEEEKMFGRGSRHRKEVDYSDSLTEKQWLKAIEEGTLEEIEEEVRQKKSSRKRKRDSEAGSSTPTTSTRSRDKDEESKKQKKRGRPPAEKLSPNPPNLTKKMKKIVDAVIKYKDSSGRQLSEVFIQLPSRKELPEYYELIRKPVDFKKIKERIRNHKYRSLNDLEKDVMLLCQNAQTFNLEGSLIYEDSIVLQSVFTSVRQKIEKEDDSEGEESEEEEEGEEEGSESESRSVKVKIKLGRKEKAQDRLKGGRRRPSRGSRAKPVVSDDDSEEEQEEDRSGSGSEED
UniProt Q9Y265: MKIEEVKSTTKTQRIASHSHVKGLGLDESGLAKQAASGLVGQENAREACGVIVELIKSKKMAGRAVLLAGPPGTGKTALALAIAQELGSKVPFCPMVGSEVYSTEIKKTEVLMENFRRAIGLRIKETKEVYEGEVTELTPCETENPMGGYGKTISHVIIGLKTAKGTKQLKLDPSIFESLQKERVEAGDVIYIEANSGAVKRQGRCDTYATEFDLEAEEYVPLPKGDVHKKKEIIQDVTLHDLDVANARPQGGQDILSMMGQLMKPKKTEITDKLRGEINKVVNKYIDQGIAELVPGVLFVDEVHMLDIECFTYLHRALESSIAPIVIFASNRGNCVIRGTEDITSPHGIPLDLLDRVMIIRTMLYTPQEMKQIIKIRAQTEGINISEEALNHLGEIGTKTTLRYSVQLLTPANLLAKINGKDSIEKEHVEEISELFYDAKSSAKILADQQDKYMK
UniProt P35222: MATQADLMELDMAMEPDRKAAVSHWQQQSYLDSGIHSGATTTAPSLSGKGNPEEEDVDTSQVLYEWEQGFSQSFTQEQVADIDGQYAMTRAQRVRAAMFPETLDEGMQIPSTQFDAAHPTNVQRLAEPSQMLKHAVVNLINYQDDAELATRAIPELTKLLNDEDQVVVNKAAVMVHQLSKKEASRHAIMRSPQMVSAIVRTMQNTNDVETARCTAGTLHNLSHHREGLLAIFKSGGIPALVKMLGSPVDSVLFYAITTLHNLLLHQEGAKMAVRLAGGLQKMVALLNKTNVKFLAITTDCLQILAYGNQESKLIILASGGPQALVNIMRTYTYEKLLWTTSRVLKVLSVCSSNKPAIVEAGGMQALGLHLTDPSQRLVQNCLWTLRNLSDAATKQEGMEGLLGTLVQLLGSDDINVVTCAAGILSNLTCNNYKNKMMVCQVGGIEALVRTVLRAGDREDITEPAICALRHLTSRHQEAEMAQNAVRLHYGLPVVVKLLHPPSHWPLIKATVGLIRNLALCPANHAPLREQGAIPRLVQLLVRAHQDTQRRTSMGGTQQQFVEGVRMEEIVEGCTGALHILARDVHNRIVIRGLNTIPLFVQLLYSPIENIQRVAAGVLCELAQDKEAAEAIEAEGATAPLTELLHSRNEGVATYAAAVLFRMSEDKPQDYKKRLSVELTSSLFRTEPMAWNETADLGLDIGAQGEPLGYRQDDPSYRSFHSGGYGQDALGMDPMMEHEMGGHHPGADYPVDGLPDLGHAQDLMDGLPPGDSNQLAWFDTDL
UniProt O54941: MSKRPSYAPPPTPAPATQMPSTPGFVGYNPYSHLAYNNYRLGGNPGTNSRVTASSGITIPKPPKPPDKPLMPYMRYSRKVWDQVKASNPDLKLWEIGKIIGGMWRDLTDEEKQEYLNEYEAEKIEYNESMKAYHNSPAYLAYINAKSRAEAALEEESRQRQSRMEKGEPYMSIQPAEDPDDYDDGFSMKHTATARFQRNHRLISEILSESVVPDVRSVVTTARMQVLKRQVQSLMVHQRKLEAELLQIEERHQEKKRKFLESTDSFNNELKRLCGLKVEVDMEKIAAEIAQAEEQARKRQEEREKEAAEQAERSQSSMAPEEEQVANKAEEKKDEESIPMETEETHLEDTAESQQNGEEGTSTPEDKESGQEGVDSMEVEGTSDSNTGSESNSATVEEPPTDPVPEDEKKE
UniProt Q08874: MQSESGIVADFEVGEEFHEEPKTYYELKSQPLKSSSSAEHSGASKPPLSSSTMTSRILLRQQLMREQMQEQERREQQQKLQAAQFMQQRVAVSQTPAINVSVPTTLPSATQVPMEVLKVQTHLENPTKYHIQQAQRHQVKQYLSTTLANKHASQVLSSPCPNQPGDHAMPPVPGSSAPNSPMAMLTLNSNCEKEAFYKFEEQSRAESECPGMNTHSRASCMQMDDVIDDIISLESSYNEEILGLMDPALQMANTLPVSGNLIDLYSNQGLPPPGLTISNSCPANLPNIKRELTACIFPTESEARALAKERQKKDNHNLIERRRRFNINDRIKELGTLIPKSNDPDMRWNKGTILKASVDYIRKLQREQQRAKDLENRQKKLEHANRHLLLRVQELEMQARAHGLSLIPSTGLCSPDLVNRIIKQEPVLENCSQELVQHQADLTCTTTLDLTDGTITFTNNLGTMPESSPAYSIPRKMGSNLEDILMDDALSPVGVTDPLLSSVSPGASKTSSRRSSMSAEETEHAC

How the values were obtained:
[1] = target: T1, Histidine triad nucleotide binding protein1 (HINT1) (mouse (endogenous in P19.CL6 cells and mouse heart)) (UniProt P70349); test: co-IP; endogenous HINT1 precipitated with anti-HINT1 antibody from heart tissue lysates of young (3-month-old) and aged (24-26-month-old) mice; 1% Triton X-100 lysis buffer, overnight at 4 °C, Dynabeads Protein G; immunoblot
T1 sequence: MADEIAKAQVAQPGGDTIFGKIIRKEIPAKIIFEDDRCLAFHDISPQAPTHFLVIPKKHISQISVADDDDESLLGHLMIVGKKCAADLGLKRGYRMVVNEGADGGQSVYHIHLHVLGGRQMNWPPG

[2] = target: T1, Histidine triad nucleotide binding protein1 (HINT1) (mouse (endogenous in P19.CL6 cells and mouse heart)); test: co-IP; endogenous HINT1 precipitated with anti-HINT1 antibody (control: normal rabbit IgG) from P19.CL6 cell lysates, also control and Smarce1 KO P19.CL6 lines; 1% Triton X-100 lysis buffer (20 mM Tris-HCl, 150 mM NaCl, pH 7.5), overnight at 4 °C, Dynabeads Protein G; immunoblot
[3] = target: AT-rich interactive domain-containing protein 1 (ARID1A) (mouse (endogenous in P19.CL6 cells and mouse heart)) (UniProt A2BH40); test: co-IP; endogenous ARID1A precipitated with anti-ARID1A antibody from heart tissue lysates of young (3-month-old) and aged (24-26-month-old) mice; 1% Triton X-100 lysis buffer, overnight at 4 °C, Dynabeads Protein G; immunoblot
Flag-tagged HINT1 = target: T2, Flag-tagged HINT1 (UniProt P70349); test: co-IP; Flag-tagged HINT1 precipitated with Anti-DDDDK-tag mAb-Magnetic Beads from lysates of transfected HEK293 cells (alone or with HA-tagged MITF), 2 h at 4 °C, 1% Triton X-100 lysis buffer; immunoblot for HA-tag, Pontin and β-catenin
T2 sequence: T1 sequence

Row | binding [1] | binding [2] | binding [3] | binding (Flag-tagged HINT1) | Substance
1 | binds | binds | binds |  | BRM/SWI2-related gene-1 (BRG1) (from UniProt Q3TKT4 1-1613)
2 |  |  |  | no binding | Pontin (from UniProt Q9Y265 1-456)
3 |  |  |  | no binding | β-catenin (from UniProt P35222 1-781)

The remaining lines, values behind:

Row | Substance | binding [1] | binding [2] | binding [3] | binding (Flag-tagged HINT1)
4 | AT-rich interactive domain-containing protein 1 (ARID1A) (from UniProt A2BH40 1-2283) | binds | binds |  | 
5 | SWI/SNF-related matrix associated actin-dependent regulator of chromatin E1 (SMARCE1) (from UniProt O54941 1-411) | binds | binds | binds | 
6 | HA-tagged MITF (from UniProt Q08874 1-526) |  |  |  | no binding
